This is one part of the list. Sequences were assembled here from the parent chain. Inactive controls read about 0.05.
B1: TEV protease; numbered along this chain (parent)
chain: MGESLFKGPRDYNPISSSICHLTNESDGHTTSLYGIGFGPFIITNKHLFRRNNGTLVVQSLHGVFKVKDTTTLQQHLVDGRDMIIIRMPKDFPPFPQKLKFREPQREERICLVTTNFQTKSMSSMVSDTSCTFPSGDGIFWKHWIQTKDGQCGSPLVSTRDGFIVGIHSASNFTNTNNYFTSVPKNFMELLTNQEAQQWVSGWRLNADSVLWGGHKVFMVKPEEPFQPVKEATQL

Variants of: B1
Assay: raw area under fraction-flipped curve 0-4 h after induction (AUC4h, not background-subtracted), DNA-recorder readout of cleavage of the substrate (dimensionless); higher = more cleavage of the substrate by the protease variant
Details: temperature: 34 °C; time window: 0-4 h after rhamnose induction
Experimental: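 In vivo DNA recorder in E. coli TOP10(DE3) ΔrhaA at 34 °C. Each TEVp single-site mutant (parent TEVp 0) is paired with a single-site variant of the 7-mer TEVs (canonical ENLYFQ|S). The substrate sits between flexible linkers in a Bxb1-sfGFP-TEVs-SsrA fusion, so cleavage stabilises Bxb1 and speeds flipping of a recombination array, read by NGS. The value is the raw area under the fraction-flipped curve over 0-4 h after rhamnose induction (AUC4h), with ≥20 reads per time point. It is not background-subtracted; inactive controls average about 0.047.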
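Also: Bxb1 expression induced with 0.2% (w/v) L-rhamnose at OD600 near 0.5, cultures sampled hourly, flipped fraction per protease–substrate barcode pair counted by paired-end Illumina sequencing.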

Variant | area with substrate ENLAFQS | area with substrate ENLDFQS | area with substrate ENLFFQS | area with substrate ENLLFQS | area with substrate ENLNFQS | area with substrate ENLQFQS | area with substrate ENLSFQS | area with substrate ENLCFQS | area with substrate ENLEFQS | area with substrate ENLHFQS | area with substrate ENLIFQS | area with substrate ENLKFQS | area with substrate ENLPFQS | area with substrate ENLRFQS | area with substrate ENLGFQS | area with substrate ENLMFQS | area with substrate ENLVFQS | area with substrate ENLWFQS | area with substrate ENLTFQS
MGESLFKGPRDYNPISSSICHLTNESDGHTTSLYGIGFGPFIITNKHLFRRNNGTLVVQSLHGVFKVKDTTTLQQHLVDGRDMIIIRMPKDFPPFPQKLKFREPQREERICLVTTNFQTKFMSSMVSDTSCTFPSGDGIFWKHWIQTKDGQCGSPLVSTRDGFIVGIHSASNFTNTNNYFTSVPKNFMELLTNQEAQQWVSGWRLNADSVLWGGHKVFMVKPEEPFQPVKEATQL [S121F] | 0.0586 | 0.0659 | 0.0563 | 0.0786 | 0.063 | 0.0621 | 0.0959 |  |  |  |  |  |  |  |  |  |  |  | 
MGESLFKGPRDYNPISSSICHLTNESDGHTTSLYGIGFGPFIITNKHLFRRNNGTLVVQSLHGVFKVKDTTTLQQHLVDGRDMIIIRMPKDFPPFPQKLKFREPQREERICLVTTNFQTKSMSCMVSDTSCTFPSGDGIFWKHWIQTKDGQCGSPLVSTRDGFIVGIHSASNFTNTNNYFTSVPKNFMELLTNQEAQQWVSGWRLNADSVLWGGHKVFMVKPEEPFQPVKEATQL [S124C] | 0.0664 |  | 0.0809 | 0.0687 | 0.0351 | 0.0587 | 0.0723 | 0.0754 | 0.0731 | 0.0713 | 0.0726 | 0.0691 | 0.0473 | 0.0726 |  |  |  |  | 
MGESLFKGPRDYNPISSSICHLTNESDGHTTSLYGIGFGPFIITNKHLFRRNNGTLVVQSLHGVFKVKDTTTLQQHLVDGRDMIIIRMPKDFPPFPQKLKFREPQREERICLVTTNFQTKSMSGMVSDTSCTFPSGDGIFWKHWIQTKDGQCGSPLVSTRDGFIVGIHSASNFTNTNNYFTSVPKNFMELLTNQEAQQWVSGWRLNADSVLWGGHKVFMVKPEEPFQPVKEATQL [S124G] | 0.0743 | 0.052 | 0.0575 | 0.0649 | 0.0691 | 0.0625 | 0.0751 | 0.0765 |  | 0.0793 |  |  |  |  |  |  |  |  | 
MGESLFKGPRDYNPISSSICHLTNESDGHTTSLYGIGFGPFIITNKHLFRRNNGTLVVQSLHGVFKVKDTTTLQQHLVDGRDMIIIRMPKDFPPFPQKLKFREPQREERICLVTTNFQTKSMSSYVSDTSCTFPSGDGIFWKHWIQTKDGQCGSPLVSTRDGFIVGIHSASNFTNTNNYFTSVPKNFMELLTNQEAQQWVSGWRLNADSVLWGGHKVFMVKPEEPFQPVKEATQL [M125Y] | 0.034 | 0.0575 | 0.0739 |  |  |  |  |  |  | 0.0792 |  |  |  |  | 0.0863 |  |  |  | 
MGESLFKGPRDYNPISSSICHLTNESDGHTTSLYGIGFGPFIITNKHLFRRNNGTLVVQSLHGVFKVKDTTTLQQHLVDGRDMIIIRMPKDFPPFPQKLKFREPQREERICLVTTNFQTKSMSSMVSDTSCNFPSGDGIFWKHWIQTKDGQCGSPLVSTRDGFIVGIHSASNFTNTNNYFTSVPKNFMELLTNQEAQQWVSGWRLNADSVLWGGHKVFMVKPEEPFQPVKEATQL [T132N] | 0.0774 |  | 0.0576 |  | 0.0594 |  |  |  | 0.0483 | 0.0683 | 0.0554 | 0.073 | 0.0473 | 0.0687 |  | 0.0526 | 0.081 |  | 
MGESLFKGPRDYNPISSSICHLTNESDGHTTSLYGIGFGPFIITNKHLFRRNNGTLVVQSLHGVFKVKDTTTLQQHLVDGRDMIIIRMPKDFPPFPQKLKFREPQREERICLVTTNFQTKSMSSMVSDTSCTFRSGDGIFWKHWIQTKDGQCGSPLVSTRDGFIVGIHSASNFTNTNNYFTSVPKNFMELLTNQEAQQWVSGWRLNADSVLWGGHKVFMVKPEEPFQPVKEATQL [P134R] | 0.0553 | 0.0666 | 0.0694 | 0.069 | 0.0595 |  | 0.0512 | 0.0652 | 0.0541 | 0.0676 | 0.0915 | 0.0662 | 0.0701 |  |  | 0.0804 | 0.0666 | 0.0814 | 
MGESLFKGPRDYNPISSSICHLTNESDGHTTSLYGIGFGPFIITNKHLFRRNNGTLVVQSLHGVFKVKDTTTLQQHLVDGRDMIIIRMPKDFPPFPQKLKFREPQREERICLVTTNFQTKSMSSMVSDTSCTFPLGDGIFWKHWIQTKDGQCGSPLVSTRDGFIVGIHSASNFTNTNNYFTSVPKNFMELLTNQEAQQWVSGWRLNADSVLWGGHKVFMVKPEEPFQPVKEATQL [S135L] | 0.0658 |  | 0.0594 |  |  |  | 0.0597 |  | 0.0619 |  |  |  |  |  |  |  | 0.0494 |  | 
MGESLFKGPRDYNPISSSICHLTNESDGHTTSLYGIGFGPFIITNKHLFRRNNGTLVVQSLHGVFKVKDTTTLQQHLVDGRDMIIIRMPKDFPPFPQKLKFREPQREERICLVTTNFQTKSMSSMVSDTSCTFPSGHGIFWKHWIQTKDGQCGSPLVSTRDGFIVGIHSASNFTNTNNYFTSVPKNFMELLTNQEAQQWVSGWRLNADSVLWGGHKVFMVKPEEPFQPVKEATQL [D137H] | 0.0777 | 0.064 | 0.0977 | 0.0703 |  |  | 0.0657 | 0.059 | 0.0621 | 0.0906 |  | 0.0379 | 0.0632 |  | 0.0751 |  | 0.0897 |  | 0.0985
MGESLFKGPRDYNPISSSICHLTNESDGHTTSLYGIGFGPFIITNKHLFRRNNGTLVVQSLHGVFKVKDTTTLQQHLVDGRDMIIIRMPKDFPPFPQKLKFREPQREERICLVTTNFQTKSMSSMVSDTSCTFPSGQGIFWKHWIQTKDGQCGSPLVSTRDGFIVGIHSASNFTNTNNYFTSVPKNFMELLTNQEAQQWVSGWRLNADSVLWGGHKVFMVKPEEPFQPVKEATQL [D137Q] | 0.0648 | 0.0552 | 0.0911 | 0.0851 | 0.072 | 0.0826 |  | 0.07 | 0.0963 | 0.0827 |  |  | 0.0567 | 0.0613 |  |  |  | 0.0649 | 
MGESLFKGPRDYNPISSSICHLTNESDGHTTSLYGIGFGPFIITNKHLFRRNNGTLVVQSLHGVFKVKDTTTLQQHLVDGRDMIIIRMPKDFPPFPQKLKFREPQREERICLVTTNFQTKSMSSMVSDTSCTFPSGTGIFWKHWIQTKDGQCGSPLVSTRDGFIVGIHSASNFTNTNNYFTSVPKNFMELLTNQEAQQWVSGWRLNADSVLWGGHKVFMVKPEEPFQPVKEATQL [D137T] | 0.0721 | 0.0832 | 0.0908 |  |  |  | 0.0672 |  |  |  |  |  |  | 0.065 |  |  |  |  | 

From the supplement of paper PMC12217912
